Screen size: about 420,000 compounds; about 50,000 (12%) were called active. The shares of active, inactive and inconclusive entries below differ from those in the screen. Calls follow the shape of the dose curve; as a rule, active = well fitted inhibition curve with a large enough effect; inconclusive = small, poorly fitted or top-dose-only effect; inactive = flat fitted curve, though single readings scatter. No potency is given beside an inconclusive call; the fits are too rough.
experiment: qHTS for Inhibitors of human tyrosyl-DNA phosphodiesterase 1 (TDP1): qHTS in cells in presence of CPT; conditions: chicken DT40 Tdp1-/-;hTDP1 cells + 20 nM CPT, ATP luminescence, 48 h; activity change, negative = growth inhibition: at 46.2 µM (top of the series) unless noted; also: nearly all actives have a fitted effect of over 55% in size
Outline: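 Cell growth measured by CellTiter-Glo luminescence after a minimum 48 h, 37 C compound exposure with 20 nM CPT in Tdp1-knockout DT40 cells stably expressing hTDP1, seeded 400/well; qHTS titration format.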
% is scaled to controls: 0 for no effect and ±100 for the full control effect; potency is read from the fitted curve at half-maximal effect; tags tell the direction and shape of the fitted curve.

Question: With `Cc1cccc(N2CCN(C(=O)c3cn(C)c4ccc(S(=O)(=O)N(C)C)cc4c3=O)CC2C)c1` (configuration not stated) as the compound, how does the Potency read?
Answer: inactive

Question: With `Cn1c(=O)n(C)c2cc(NS(=O)(=O)c3ccc(C(C)(C)C)cc3)ccc21` as the compound, how does the Potency read?
Answer: active: 18.4 µM

Question: For `CN(C)S(=O)(=O)c1ccc(C(=O)OCC(=O)Nc2ccc3c(c2)OCO3)cc1`, which Potency is on record?
Answer: inactive

Question: For `Cn1c(=O)c(-c2ccccc2)nc2cnc(OCc3ccccc3)nc21`, which Potency is on record?
Answer: inactive

Question: With `O=C(COC(=O)c1ccc(O)cc1)Nc1ccc(S(=O)(=O)N2CCOCC2)cc1` as the compound, how does the Potency read?
Answer: inactive

Question: Which Potency does the source give for `O=C(N/N=C/c1ccc2c(c1)OCO2)/C(=C/c1ccc2c(c1)OCO2)NC(=O)c1ccccc1` here?
Answer: inconclusive [inhibitor, single point]

Question: For `CCn1c(C(=O)NCc2ccc(C)cc2)cc2sc(Cl)cc21`, which Potency is on record?
Answer: inconclusive [inhibitor, single point]

Question: With `CCCNC(=O)NC(=O)CSc1cccc(C(F)(F)F)c1` as the compound, how does the Potency read?
Answer: inactive

Question: For `Cc1ccc(NC(=O)C2CC(=O)n3c(nc4ccccc43)N2)cc1C` (configuration not stated), which Potency is on record?
Answer: inconclusive [inhibitor, partial curve]

Question: With `CC1CC(C)(C)CC2(C1)NC(=O)N(CC(=O)N(Cc1ccccc1)c1ccccc1)C2=O` (configuration not stated) as the compound, how does the Potency read?
Answer: inconclusive [inhibitor, single point]

Question: Which Potency does the source give for `S=C(NCCc1cccc(Cl)c1)NC1CCCCC1` here?
Answer: inconclusive [inhibitor, single point]

Question: Which Potency does the source give for `CCCCCNC(=O)C(c1ccncc1)n1c(=O)c(-c2ccco2)nc2ccccc21` (configuration not stated) here?
Answer: inconclusive [inhibitor, single point]

Question: For `COc1cn(CC(=O)Nc2c(C)cc(C)cc2C)c(CN2CCCCC2)cc1=O`, which Potency is on record?
Answer: inactive

Question: For `COc1cccc(CNC(=O)CCn2ccc3cc(S(=O)(=O)N4CCC(C)CC4)ccc32)c1`, which activity change, negative = growth inhibition is on record?
Answer: inconclusive: -33.6% [inhibitor]

Question: With `CCOc1ccccc1C(=O)NCC(=O)OCc1csc(CC(=O)Nc2ccc(C)cc2)n1` as the compound, how does the Potency read?
Answer: inconclusive [inhibitor, single point]

Question: Which Potency does the source give for `CCC(C)c1ccccc1N1CC(C(=O)NCCC2=CCCCC2)CC1=O` (configuration not stated) here?
Answer: active: 18.4 µM

Question: With `COc1ccc(NC(=O)CN2CCN(c3nc(-c4cccc(OC)c4)cs3)CC2)cc1` as the compound, how does the Potency read?
Answer: inconclusive [inhibitor, single point]

Question: Which Potency does the source give for `O/N=C\c1ccccc1Oc1ccc(F)cc1` here?
Answer: inactive

Question: For `CC(C)c1ccc(NC(=O)c2ccc3oc(=O)c(S(=O)(=O)c4ccc(F)cc4)cc3c2)cc1`, which Potency is on record?
Answer: inconclusive [inhibitor, partial curve]

Question: Which Potency does the source give for `COc1ccc(N2CCN(C(=O)CN3c4cccc5cccc(c45)S3(=O)=O)CC2)cc1` here?
Answer: inconclusive [inhibitor, single point]

Question: For `c1nc(NCCN2CCOCC2)c2cc(-c3ccc4c(c3)OCO4)ccc2n1`, which activity change, negative = growth inhibition is on record?
Answer: inconclusive: -33.8% [inhibitor]

Question: Which Potency does the source give for `Cc1ccc(C(=O)N/C(=C/c2ccco2)C(=O)Nc2cccc(C)c2)cc1` here?
Answer: inconclusive [inhibitor, partial curve, poor fit]

Question: Which Potency does the source give for `COc1ccc(C)cc1NC(=O)CCCN1C(=O)C(c2ccccc2)Oc2cccnc21` (configuration not stated) here?
Answer: inconclusive [inhibitor, single point]

Question: Which Potency does the source give for `COc1ccc(C(N)c2csc(Nc3ccc(C(=O)NCCCO)cn3)n2)cc1` (configuration not stated) here?
Answer: inconclusive [inhibitor, single point]

Question: Which Potency does the source give for `COc1cc(/C=C2\CCCc3c2nc2ccccc2c3C(=O)O)cc(OC)c1O` here?
Answer: inconclusive [inhibitor, single point]

Question: For `COc1cccc(CNC(=O)c2ccc3nc[nH]c3c2)c1`, which Potency is on record?
Answer: inconclusive [inhibitor, single point]

Question: With `CS(=O)(=O)N(CC(=O)N1CCCCC1)c1sc2c(c1C#N)CCCC2` as the compound, how does the Potency read?
Answer: inconclusive [inhibitor, partial curve, poor fit]

Question: Which Potency does the source give for `CCOc1ccccc1N1CCN(CC(=O)Nc2ccccc2C(=O)NC2CC2)CC1` here?
Answer: active: 20.6 µM

Question: Which Potency does the source give for `CC1(C(=O)NCc2ccccc2)CSCC(=O)N1Cc1cccs1` (configuration not stated) here?
Answer: inconclusive [inhibitor, single point]

Question: For `O=C(c1ccc2c3c(cccc13)CC2)C1CCCN(Cc2ccc(OCCO)cc2)C1` (configuration not stated), which Potency is on record?
Answer: inconclusive [inhibitor, single point]

Question: Which Potency does the source give for `CCNC(=S)N(CCc1cccc(C)c1)Cc1cc2cc(OC)c(OC)cc2[nH]c1=O` here?
Answer: inconclusive [inhibitor, single point]

Question: For `CCOc1ccc(S(=O)(=O)NCCc2csc3nc(-c4ccc(OC)c(OC)c4)nn23)cc1`, which Potency is on record?
Answer: inconclusive [inhibitor, single point]

Question: For `CCN1CCN(c2ncc(C(=O)Nc3cc(Cl)ccc3OC)c3ccccc23)CC1`, which Potency is on record?
Answer: inconclusive [inhibitor, single point]

Question: For `Cc1cc(C)nc(N/N=C/c2cc(Br)ccc2O)n1`, which Potency is on record?
Answer: active: 5.17 µM

Question: With `COc1cccc(NC(=O)c2ccccc2OCC(=O)Nc2ccc(Br)cc2)c1` as the compound, how does the Potency read?
Answer: inconclusive [inhibitor, single point]

Question: For `CCN(C(=O)CSc1nc2ccccc2n1CCc1ccccc1)C1CCS(=O)(=O)C1` (configuration not stated), which Potency is on record?
Answer: inconclusive [inhibitor, single point]

Question: Which Potency does the source give for `COc1cc(NC(=S)Nc2cccnc2)cc(OC)c1OC` here?
Answer: inactive

Question: For `Clc1cccc(CSc2nc(NCCc3ccccc3)c3ccccc3n2)c1`, which Potency is on record?
Answer: inconclusive [inhibitor, single point]

Question: With `CC(C)c1ccc(NC(=O)CSc2ncnc3c2sc2ccccc23)cc1` as the compound, how does the Potency read?
Answer: inconclusive [inhibitor, single point]

Question: For `CCOC(=O)[C@]12CCC=C1N(Cc1ccc3c(c1)OCO3)C(=O)[C@H](CC(=O)NCCCN1CCCC1=O)C2`, which Potency is on record?
Answer: inactive

Question: For `C#CCN1C=CC(=O)[C@@H](OC(=O)Nc2ccc(Br)cc2)[C@H]1c1ccccc1Br`, which Potency is on record?
Answer: inconclusive [inhibitor, single point]

Question: With `Cc1ccc(NC(=O)c2ccc(-n3cncn3)c([N+](=O)[O-])c2)cc1F` as the compound, how does the Potency read?
Answer: inconclusive [inhibitor, single point]

Question: With `CSc1nc(NC(C)(C)C)nc(N2CCOCC2)n1` as the compound, how does the Potency read?
Answer: inconclusive [inhibitor, single point]

Question: For `CC1CN(CCOc2ccccc2-c2ccccc2)CC(C)O1` (configuration not stated), which Potency is on record?
Answer: inconclusive [inhibitor, single point]

Question: Which Potency does the source give for `O=C(Nc1ccn(CCCN2CCN(Cc3cccc4ccccc34)CC2)c(=O)n1)OCc1ccccc1` here?
Answer: active: 16.4 µM

Question: For `COc1ccc(NC(=O)Cn2ncc3c(C)n(Cc4cccc(Cl)c4)c(C)c3c2=O)cc1`, which Potency is on record?
Answer: inactive

Question: Which Potency does the source give for `CCSc1nc(N)c(C#N)c(-c2ccco2)c1C#N` here?
Answer: inconclusive [inhibitor, single point]

Question: Which Potency does the source give for `CC(c1nnnn1C1CCCCC1)N(Cc1ccccc1)Cc1cccnc1` (configuration not stated) here?
Answer: inconclusive [inhibitor, single point]

Question: For `COc1c(C)cccc1C(=O)Nc1ccc(Cl)c(-c2nc3cc(C)ccc3o2)c1`, which Potency is on record?
Answer: active: 14.6 µM

Question: With `CCCOC(=O)c1cc(O)c(O)c(O)c1` as the compound, how does the Potency read?
Answer: inconclusive [inhibitor, single point]

Question: With `CCOc1ccc(OCCSc2nc3ccccc3c(=O)[nH]2)cc1` as the compound, how does the Potency read?
Answer: inconclusive [inhibitor, full curve]

Question: Which Potency does the source give for `Cc1cc2cc(CNC(=O)c3ccc(C)c([N+](=O)[O-])c3)ccc2[nH]1` here?
Answer: active: 20.6 µM

Question: For `Cc1nnc(SCC(=O)Nc2ccc(S(=O)(=O)Nc3ccc(Cl)nn3)cc2)s1`, which Potency is on record?
Answer: inactive

Question: Which Potency does the source give for `CCOC(=O)c1[nH]c2ccccc2c1NC(=S)Nc1cc(C)ccc1C` here?
Answer: inconclusive [inhibitor, partial curve]

Question: Which Potency does the source give for `N#Cc1ccsc1NC(=O)CN1CCN(c2ccccc2O)CC1` here?
Answer: inactive

Question: With `CC(C)(C)NC(=O)C(c1ccccc1)n1c(=O)c(-c2ccco2)nc2ccccc21` (configuration not stated) as the compound, how does the Potency read?
Answer: inconclusive [inhibitor, single point]

Question: Which Potency does the source give for `COC(=O)c1c(C)[nH]c(C)c1-c1ccc([N+](=O)[O-])cc1` here?
Answer: inconclusive [inhibitor, single point]

Question: With `COc1ccc(-c2cc(C)no2)cc1S(=O)(=O)N1CCN(c2ccccn2)CC1` as the compound, how does the Potency read?
Answer: inconclusive [inhibitor, single point]

Question: Which Potency does the source give for `CN(CC(=O)Nc1ccccc1Br)C(=O)c1sccc1-c1ccccc1` here?
Answer: inconclusive [inhibitor, single point]

Question: Which Potency does the source give for `COc1ccc(-c2nc3sc(CCNC(=O)Cc4ccc(Cl)cc4)c(C)n3n2)cc1` here?
Answer: inconclusive [inhibitor, single point]

Question: Which Potency does the source give for `Cc1cccc(NC(=O)COc2ccc(/C=C\c3[nH]c(=O)[nH]c(=O)c3[N+](=O)[O-])cc2)c1` here?
Answer: inactive

Question: For `C=CCn1c(SCC(C)=O)nc2scc(-c3ccc(C)o3)c2c1=O`, which Potency is on record?
Answer: inconclusive [inhibitor, single point]

Question: Which Potency does the source give for `O=C1c2ccccc2C(=O)N1Cc1nn2c(-c3ccc(Cl)cc3)nnc2s1` here?
Answer: inactive

Question: Which Potency does the source give for `CCOc1ccc(C2C(=O)N(C3CCCCCC3)CC(=O)N2Cc2ccc(F)cc2)cc1OC` (configuration not stated) here?
Answer: inconclusive [inhibitor, single point]

Question: Which Potency does the source give for `FC(F)(F)c1cnc(-c2cnc3c(-c4ccc(Cl)cc4)cnn3c2)c(Cl)c1` here?
Answer: inconclusive [inhibitor, partial curve, poor fit]

Question: For `O=C(NNC(=O)c1cc2cc(OC(F)(F)F)ccc2[nH]1)c1cccc(C(F)(F)F)c1`, which Potency is on record?
Answer: inconclusive [inhibitor, single point]

Question: Which Potency does the source give for `CCN(CC)c1ccc(C(=O)NCc2ccc3c(c2)CCN3C(=O)c2cccc(C)c2)cc1` here?
Answer: inconclusive [inhibitor, partial curve]
